# Data taken from the supplement of paper PMC8728848.
# This is one part of the list.
# B1: Gal 8 (Mus musculus), Q9JL15 (protein)
# chain: MGGSHHHHHHGMASMLSLNNLQNIIYNPIIPYVGTITEQLKPGSLIVIRGHVPKDSERFQVDFQLGNSLKPRADVAFHFNPHFKRSSCIVCNTLTQEKWGWEEITYDMPFRKEKSFEIVFMVLKNKFQVAVNGRHVLLYAHRISPEQIDTVGIYGKVNIHSIGFRFSSASALPHTLGDLQSMETSALGLTQINRENIQKPGKLQLSLPFEARLNASMGPGRTVVIKGEVNTNARSFNVDLVAGKTRDIALHLNPHLNVKAFVRNSFLQDAWGEEERNITCFPFSSGMYFEMIIYCDVREFKVAINGVHSLEYKHRFKDLSSIDTLSVDGDIRLLDVRSW
# What was measured:
# Experiment in all cases: glycan array binding signal (z-score within array); higher = stronger binding
# Conditions in all cases: glycan notation: IUPAC condensed, linker removed; mutation: R82H, R255H
# [1] = molecular target: Neu5Ac(a2-6)GlcNAc(b1-4)GlcNAc(b1-4)GlcNAc
# Outline: (§1)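 Glycan array data were curated from 3228 arrays in the Consortium for Functional Glycomics database and kept only where the protein sequence was available. Glycan names were converted to IUPAC-condensed notation, and columns mapping to the same glycan were averaged. The binding signal is a within-array Z-score, averaged across arrays of the same protein sequence at different concentrations or buffers and across linkers. Negative Z-scores can be read as non-binding.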
# Neu5Ac(a2-8)Neu5Ac = molecular target: Neu5Ac(a2-8)Neu5Ac
# Outline: as §1
# [2] = molecular target: Neu5Ac(a2-8)Neu5Ac(a2-3)Gal(b1-3)GalNAc(b1-4)[Neu5Ac(a2-3)]Gal(b1-4)Glc
# Outline: as §1
# [3] = molecular target: Neu5Ac(a2-8)Neu5Ac(a2-3)Gal(b1-3)GalNAc(b1-4)[Neu5Ac(a2-8)Neu5Ac(a2-3)]Gal(b1-4)Glc
# Outline: as §1
# [4] = molecular target: Neu5Ac(a2-8)Neu5Ac(a2-3)Gal(b1-4)Glc
# Outline: as §1
# [5] = molecular target: Neu5Ac(a2-8)Neu5Ac(a2-3)Gal(b1-4)GlcNAc
# Outline: as §1
# [6] = molecular target: Neu5Ac(a2-8)Neu5Ac(a2-3)[Gal(b1-3)GalNAc(b1-4)]Gal(b1-4)Glc
# Outline: as §1
# [7] = molecular target: Neu5Ac(a2-8)Neu5Ac(a2-3)[GalNAc(b1-4)]Gal(b1-4)Glc
# Outline: as §1
# [8] = molecular target: Neu5Ac(a2-8)Neu5Ac(a2-8)Neu5Ac
# Outline: as §1
# [9] = molecular target: Neu5Ac(a2-8)Neu5Ac(a2-8)Neu5Ac(a2-3)Gal(b1-4)Glc
# Outline: as §1
# [10] = molecular target: Neu5Ac(a2-8)Neu5Ac(a2-8)Neu5Ac(a2-3)[Gal(b1-3)GalNAc(b1-4)]Gal(b1-4)Glc
# Outline: as §1
# [11] = molecular target: Neu5Ac(a2-8)Neu5Ac(a2-8)Neu5Ac(a2-3)[GalNAc(b1-4)]Gal(b1-4)Glc
# Outline: as §1
# [12] = molecular target: Neu5Ac(a2-8)Neu5Ac(a2-8)Neu5Ac(a2-8)Neu5Ac(a2-3)[GalNAc(b1-4)]Gal(b1-4)Glc
# Outline: as §1
# [13] = molecular target: Neu5Ac(a2-8)Neu5Gc(a2-3)Gal(b1-4)GlcNAc
# Outline: as §1
# [14] = molecular target: Neu5Ac(b2-6)Gal(b1-4)GlcNAc
# Outline: as §1
# Neu5Ac(b2-6)GalNAc = molecular target: Neu5Ac(b2-6)GalNAc
# Outline: as §1
# [15] = molecular target: Neu5Ac9Ac(a2-3)Gal(b1-3)GlcNAc
# Outline: as §1
# [16] = molecular target: Neu5Ac9Ac(a2-3)Gal(b1-4)GlcNAc
# Outline: as §1
# [17] = molecular target: Neu5Ac9Ac(a2-6)Gal(b1-4)GlcNAc
# Outline: as §1
# [18] = molecular target: Neu5Gc(a2-3)Gal(b1-3)GlcNAc
# Outline: as §1
# [19] = molecular target: Neu5Gc(a2-3)Gal(b1-3)[Fuc(a1-4)]GlcNAc
# Outline: as §1
# Neu5Gc(a2-3)Gal(b1-4)Glc = molecular target: Neu5Gc(a2-3)Gal(b1-4)Glc
# Outline: as §1
# [20] = molecular target: Neu5Gc(a2-3)Gal(b1-4)GlcNAc
# Outline: as §1
# [21] = molecular target: Neu5Gc(a2-3)Gal(b1-4)GlcNAc(b1-3)Gal(b1-4)GlcNAc(b1-2)Man(a1-3)[Neu5Gc(a2-3)Gal(b1-4)GlcNAc(b1-3)Gal(b1-4)GlcNAc(b1-2)Man(a1-6)]Man(b1-4)GlcNAc(b1-4)GlcNAc
# Outline: as §1
# [22] = molecular target: Neu5Gc(a2-3)Gal(b1-4)[Fuc(a1-3)]GlcNAc
# Outline: as §1
# [23] = molecular target: Neu5Gc(a2-6)Gal(b1-4)GlcNAc
# Outline: as §1
# Neu5Gc(a2-6)GalNAc = molecular target: Neu5Gc(a2-6)GalNAc
# Outline: as §1
# [24] = molecular target: Neu5Gc(a2-8)Neu5Ac(a2-3)Gal(b1-4)GlcNAc
# Outline: as §1
# [25] = molecular target: Neu5Gc(a2-8)Neu5Gc(a2-3)Gal(b1-4)GlcNAc
# Outline: as §1
# [26] = molecular target: Neu5Gc(a2-8)Neu5Gc(a2-3)Gal(b1-4)GlcNAc(b1-3)Gal(b1-4)GlcNAc
# Outline: as §1
# [27] = molecular target: Neu5Gc(a2-8)Neu5Gc(a2-6)Gal(b1-4)GlcNAc
# Outline: as §1
# [28] = molecular target: Neu5Gc(b2-6)Gal(b1-4)GlcNAc
# Outline: as §1
binder,measurement,setting,value
B1,glycan array binding signal (z-score),[1],-0.275
same,glycan array binding signal (z-score),Neu5Ac(a2-8)Neu5Ac,-0.216
same,glycan array binding signal (z-score),[2],-0.246
same,glycan array binding signal (z-score),[3],-0.279
same,glycan array binding signal (z-score),[4],-0.187
same,glycan array binding signal (z-score),[5],-0.278
same,glycan array binding signal (z-score),[6],-0.279
same,glycan array binding signal (z-score),[7],-0.268
same,glycan array binding signal (z-score),[8],-0.265
same,glycan array binding signal (z-score),[9],-0.253
same,glycan array binding signal (z-score),[10],-0.239
same,glycan array binding signal (z-score),[11],-0.27
same,glycan array binding signal (z-score),[12],-0.26
same,glycan array binding signal (z-score),[13],-0.268
same,glycan array binding signal (z-score),[14],-0.267
same,glycan array binding signal (z-score),Neu5Ac(b2-6)GalNAc,-0.275
same,glycan array binding signal (z-score),[15],0.235
same,glycan array binding signal (z-score),[16],-0.275
same,glycan array binding signal (z-score),[17],-0.254
same,glycan array binding signal (z-score),[18],-0.22
same,glycan array binding signal (z-score),[19],-0.233
same,glycan array binding signal (z-score),Neu5Gc(a2-3)Gal(b1-4)Glc,-0.133
same,glycan array binding signal (z-score),[20],-0.335
same,glycan array binding signal (z-score),[21],-0.254
same,glycan array binding signal (z-score),[22],-0.215
same,glycan array binding signal (z-score),[23],-0.251
same,glycan array binding signal (z-score),Neu5Gc(a2-6)GalNAc,0.261
same,glycan array binding signal (z-score),[24],-0.28
same,glycan array binding signal (z-score),[25],-0.259
same,glycan array binding signal (z-score),[26],-0.284
same,glycan array binding signal (z-score),[27],-0.279
same,glycan array binding signal (z-score),[28],-0.199
